This is one part of the list.

The chains are these.
B1: PhoQ; a variant is named by its letters at X, in order, P23837 (parent)
chain: MKKLLRLFFPLSLRVRFLLATAAVVLVLSLAYGMVALIGYSVSFDKTTFRLLRGESNLFYTLAKWENNKLHVELPENIDKQSPTMTLIYDENGQLLWAQRDVPWLMKMIQPDWLKSNGFHEIEADVNDTSLLLSGDHSIQQQLQEVREDDDDAEMTHSVAVNVYPATSRMPKLTIVVVDTIPVELKSSYMVWSWFIYVLSANLLLVIPLLWVAAWWSLRPIEALAKEVRELEEHNRELLNPATTRELTSLVRNLNRLLKSERERYDKYRTTLTDLTHSLKTPLXXLQXXLRSLRSEKMSVSDAEPVMLEQISRISQQIGYYLHRASMRGGTLLSRELHPVAPLLDNLTSALNKVYQRKGVNISLDISPEISFVGEQNDFVEVMGNVLDNACKYCLEFVEISARQTDEHLYIVVEDDGPGIPLSKREVIFDRGQRVDTLRPGQGVGLAVAREITEQYEGKIVAGESMLGGARMEVIFGRQHSAPKDE

Variants of B1 are the subject of the assay. In words: enrichment ratio after two sorts for PhoP signalling (ratio (wild type AVST 3.29)); higher = more functional. Conditions: with PhoP (E. coli).
As to FVWA, the enrichment ratio was not above 0.25.
Under AREN stands not above 0.25.
Under GGSW stands not above 0.25; under DFME, not above 0.25; under HYQG, not above 0.25.
For DIQL the value was not above 0.25.
Consider WHDW, for which the enrichment ratio was not above 0.25.
Under NNLM stands 2.77; under PTFH, not above 0.25.
For TVCY the value was not above 0.25; for HTHS, not above 0.25.
Turning to TEKW, the enrichment ratio is not above 0.25.
For VVFK the value was not above 0.25; for YRSY, not above 0.25.
For ETAF the value was not above 0.25.
Regarding CYFY, the enrichment ratio is not above 0.25.
Take NPRI: the enrichment ratio is not above 0.25.
Under NYMW stands not above 0.25; under MFMK, not above 0.25; under GFSW, not above 0.25.
Regarding EYPM, the enrichment ratio is not above 0.25.
Under WARQ stands not above 0.25; under THLC, 5.62.
For the variant LHVE, the enrichment ratio was not above 0.25.
Turning to FSNM, the enrichment ratio is not above 0.25.
For NLWE the value was not above 0.25; for RHRF, not above 0.25.
Under GYKL stands not above 0.25; under CFIF, not above 0.25; under TDMR, 5.88.
Under SQKP stands not above 0.25.
Turning to IKNC, the enrichment ratio was not above 0.25.
Under LWWD stands not above 0.25.
For SCQN the value was not above 0.25; for DTAG, not above 0.25; for SKCK, not above 0.25.
For YYKY the value was not above 0.25; for ETYY, not above 0.25.
Consider VRQI, for which the enrichment ratio was not above 0.25.
Under RYIC stands not above 0.25; under SNQY, 2.66; under FPGM, not above 0.25.
Under MPLL stands not above 0.25; under KDPA, not above 0.25; under NISP, not above 0.25.
Under DRPS stands not above 0.25; under YQAD, not above 0.25; under VMPQ, not above 0.25.
With YTPT, the enrichment ratio is not above 0.25.
For IMQY the value was not above 0.25; for HTTH, not above 0.25.
For IKMS the value was not above 0.25; for WVTI, not above 0.25; for LTQH, not above 0.25.
FLYV: the enrichment ratio was not above 0.25.
WTQS: the enrichment ratio was not above 0.25.
For IKPL the value was not above 0.25.
Under RWQQ stands not above 0.25; under VLKV, not above 0.25.
Under MTIT stands not above 0.25.
As for YDQI, the enrichment ratio is not above 0.25.
As to VGDW, the enrichment ratio was not above 0.25.
For RGCN the value was not above 0.25; for SMKF, not above 0.25; for MFNN, not above 0.25.
On to WAWW, for which the enrichment ratio was not above 0.25.
For RKSW the value was not above 0.25; for HLCV, not above 0.25.
Under NYHC stands not above 0.25; under QGTR, not above 0.25; under KEIG, not above 0.25.
Under RMIN stands not above 0.25; under LNAK, not above 0.25.
Turning to WTKF, the enrichment ratio was not above 0.25.
For QTWF the value was not above 0.25; for WWAR, not above 0.25.
Regarding ARRM, the enrichment ratio was not above 0.25.
Turning to SCDM, the enrichment ratio is not above 0.25.
Under KVWM stands not above 0.25.
For DCEG the value was not above 0.25; for DVNH, not above 0.25; for CFLY, not above 0.25.
Turning to NEQK, the enrichment ratio is not above 0.25.
Take IPRH: the enrichment ratio was not above 0.25.
As for AKTF, the enrichment ratio amounted to 2.43.
For EYYY the value was not above 0.25; for FHKE, not above 0.25.
For DDDC the value was not above 0.25; for VMWW, not above 0.25.
For the variant TPVN, the enrichment ratio is not above 0.25.
For KNQR the value was not above 0.25.
Under EENI stands not above 0.25.
For VTYF the value was not above 0.25; for QSCR, not above 0.25; for HFID, not above 0.25.
Take IMMP: the enrichment ratio is not above 0.25.
For RWFC the value was not above 0.25; for GAGL, not above 0.25.
Turning to VQLM, the enrichment ratio was 5.74.
For PGDH the value was not above 0.25; for MQMI, not above 0.25.
Turning to ENFW, the enrichment ratio was not above 0.25.
Regarding YAKG, the enrichment ratio was not above 0.25.
For MPLH the value was not above 0.25; for PFRS, not above 0.25; for WMSQ, not above 0.25.
For HRNV the value was not above 0.25; for NREF, not above 0.25; for NNQH, not above 0.25.
In the case of SVDS, the enrichment ratio is not above 0.25.
For YRKH the value was not above 0.25; for PEWV, not above 0.25.
Consider PMAV, for which the enrichment ratio was not above 0.25.
Take HPHG: the enrichment ratio was not above 0.25.
Under QFWY stands not above 0.25.
Under YYGP stands not above 0.25.
On to HEEM, for which the enrichment ratio was not above 0.25.
Take AMLD: the enrichment ratio stood at 4.71.
Take DVSE: the enrichment ratio is not above 0.25.
For VRGE the value was not above 0.25; for NTYN, not above 0.25.
Under LLKV stands not above 0.25.
With ETRY, the enrichment ratio was not above 0.25.
For HRGH the value was not above 0.25; for TQYE, 35.7; for GHFD, not above 0.25.
On to NWNR, for which the enrichment ratio was not above 0.25.
For IHAT the value was not above 0.25.
For TRTL the value was 9.57; for SNHG, not above 0.25; for EHYY, not above 0.25.
For LFAI the value was not above 0.25; for ECNP, not above 0.25.
As for GEVI, the enrichment ratio was determined as 7.6.
For CSYP, the enrichment ratio is not above 0.25.
For WCHR the value was not above 0.25; for DNLI, not above 0.25; for VPQS, not above 0.25.
Under DTNR stands not above 0.25; under NWEC, not above 0.25; under HSPR, not above 0.25.
Take YRIS: the enrichment ratio was not above 0.25.
For SFRW the value was not above 0.25; for ALNK, not above 0.25; for GVKQ, not above 0.25.
Under QKCA stands not above 0.25; under KHSD, not above 0.25.
Under DCDH stands not above 0.25; under FGMP, not above 0.25.
Take TAYW: the enrichment ratio worked out at 2.46.
Under TFRR stands not above 0.25; under KKVV, not above 0.25.
For GIHI the value was not above 0.25.
